{"sequences": {"note": "By UniProt entry, the sequences of proteins in these tests, tags left out.", "UniProt Q96P20": "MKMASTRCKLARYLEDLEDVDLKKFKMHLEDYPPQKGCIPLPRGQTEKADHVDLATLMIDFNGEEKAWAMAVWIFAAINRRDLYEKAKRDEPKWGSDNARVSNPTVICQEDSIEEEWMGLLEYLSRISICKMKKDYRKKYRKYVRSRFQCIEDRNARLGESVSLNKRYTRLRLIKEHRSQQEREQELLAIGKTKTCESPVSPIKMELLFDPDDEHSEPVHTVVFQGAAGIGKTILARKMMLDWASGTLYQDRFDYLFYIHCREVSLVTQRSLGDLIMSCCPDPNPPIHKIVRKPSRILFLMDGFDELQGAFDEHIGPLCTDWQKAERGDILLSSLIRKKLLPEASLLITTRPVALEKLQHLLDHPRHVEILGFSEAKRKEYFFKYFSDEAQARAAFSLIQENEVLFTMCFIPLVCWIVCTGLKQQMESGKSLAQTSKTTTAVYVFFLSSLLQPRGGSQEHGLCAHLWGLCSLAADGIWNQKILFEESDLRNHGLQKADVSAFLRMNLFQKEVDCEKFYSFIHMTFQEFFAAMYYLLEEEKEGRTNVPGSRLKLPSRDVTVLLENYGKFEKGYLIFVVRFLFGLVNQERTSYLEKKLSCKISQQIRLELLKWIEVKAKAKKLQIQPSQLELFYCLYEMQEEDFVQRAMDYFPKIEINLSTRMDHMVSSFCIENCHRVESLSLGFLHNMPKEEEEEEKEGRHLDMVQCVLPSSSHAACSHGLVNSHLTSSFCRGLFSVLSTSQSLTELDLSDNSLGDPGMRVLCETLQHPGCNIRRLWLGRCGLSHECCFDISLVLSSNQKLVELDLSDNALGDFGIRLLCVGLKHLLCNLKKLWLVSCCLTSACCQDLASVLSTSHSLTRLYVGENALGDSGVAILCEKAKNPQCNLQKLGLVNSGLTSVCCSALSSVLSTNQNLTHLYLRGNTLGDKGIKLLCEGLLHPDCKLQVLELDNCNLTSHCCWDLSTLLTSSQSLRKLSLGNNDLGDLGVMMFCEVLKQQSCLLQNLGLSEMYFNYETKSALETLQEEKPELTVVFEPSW"}, "source": "paper PMC12466843", "key": {"GFP-human FBXL2 (human)": {"biological_target": "T1, GFP-human FBXL2 (human) (UniProt Q9UKC9)", "T1 sequence": "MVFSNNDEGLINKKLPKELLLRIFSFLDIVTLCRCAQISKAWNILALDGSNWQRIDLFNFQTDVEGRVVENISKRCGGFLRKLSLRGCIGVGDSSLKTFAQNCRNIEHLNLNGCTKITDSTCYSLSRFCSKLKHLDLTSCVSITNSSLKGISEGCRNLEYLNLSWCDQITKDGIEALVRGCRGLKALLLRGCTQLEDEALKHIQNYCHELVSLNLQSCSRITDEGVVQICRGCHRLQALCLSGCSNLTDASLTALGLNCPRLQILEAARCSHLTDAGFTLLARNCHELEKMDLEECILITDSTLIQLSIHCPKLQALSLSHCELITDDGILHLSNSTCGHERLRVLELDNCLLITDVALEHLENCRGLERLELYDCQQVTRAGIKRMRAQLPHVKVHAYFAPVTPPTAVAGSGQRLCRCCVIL", "assay": "co-IP; coimmunoprecipitation of NLRP3 and FBXL2 with or without USP13 overexpression (fig. S4A; legend not shown)"}, "[1]": {"biological_target": "T2, Flag-tagged human USP13 truncation mutant lacking the N-terminal region (amino acid residues 625 to 863) (human) (UniProt Q92995)", "T2 sequence": "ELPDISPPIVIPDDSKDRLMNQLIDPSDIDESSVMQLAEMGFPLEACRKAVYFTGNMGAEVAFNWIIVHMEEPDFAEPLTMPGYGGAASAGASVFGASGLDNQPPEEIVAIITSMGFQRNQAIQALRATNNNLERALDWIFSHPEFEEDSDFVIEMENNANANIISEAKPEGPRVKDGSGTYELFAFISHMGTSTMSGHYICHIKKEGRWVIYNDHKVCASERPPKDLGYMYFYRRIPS", "assay": "co-IP; HEK293T cells transfected with Myc-tagged human NLRP3 and Flag-tagged human USP13 or its truncation mutants; lysates immunoprecipitated with anti-Flag M2 beads; immunoblot (Fig. 1L)"}, "HA-human TRIM31 (human)": {"biological_target": "T3, HA-human TRIM31 (human) (UniProt Q9BZY9)", "T3 sequence": "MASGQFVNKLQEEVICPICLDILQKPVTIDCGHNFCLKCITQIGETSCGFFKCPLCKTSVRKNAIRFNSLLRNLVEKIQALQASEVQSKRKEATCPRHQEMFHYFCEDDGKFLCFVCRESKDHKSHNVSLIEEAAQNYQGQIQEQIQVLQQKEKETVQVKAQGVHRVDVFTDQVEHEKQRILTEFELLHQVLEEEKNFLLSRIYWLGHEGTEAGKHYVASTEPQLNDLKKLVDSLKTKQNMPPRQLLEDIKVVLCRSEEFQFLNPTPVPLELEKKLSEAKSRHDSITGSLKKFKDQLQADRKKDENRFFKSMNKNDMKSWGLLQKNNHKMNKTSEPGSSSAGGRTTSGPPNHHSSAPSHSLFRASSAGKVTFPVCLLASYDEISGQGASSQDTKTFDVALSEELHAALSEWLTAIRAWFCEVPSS", "assay": "co-IP; HEK293T cells transfected with the indicated plasmid combinations, with or without USP13 overexpression; lysates immunoprecipitated with anti-HA beads; immunoblot of NLRP3 and TRIM31 (Fig. 4E)"}, "[2]": {"biological_target": "T4, NLRP3, endogenous in murine macrophages (mouse (endogenous in BMDMs and PRMs)), Q8R4B8", "T4 chain": "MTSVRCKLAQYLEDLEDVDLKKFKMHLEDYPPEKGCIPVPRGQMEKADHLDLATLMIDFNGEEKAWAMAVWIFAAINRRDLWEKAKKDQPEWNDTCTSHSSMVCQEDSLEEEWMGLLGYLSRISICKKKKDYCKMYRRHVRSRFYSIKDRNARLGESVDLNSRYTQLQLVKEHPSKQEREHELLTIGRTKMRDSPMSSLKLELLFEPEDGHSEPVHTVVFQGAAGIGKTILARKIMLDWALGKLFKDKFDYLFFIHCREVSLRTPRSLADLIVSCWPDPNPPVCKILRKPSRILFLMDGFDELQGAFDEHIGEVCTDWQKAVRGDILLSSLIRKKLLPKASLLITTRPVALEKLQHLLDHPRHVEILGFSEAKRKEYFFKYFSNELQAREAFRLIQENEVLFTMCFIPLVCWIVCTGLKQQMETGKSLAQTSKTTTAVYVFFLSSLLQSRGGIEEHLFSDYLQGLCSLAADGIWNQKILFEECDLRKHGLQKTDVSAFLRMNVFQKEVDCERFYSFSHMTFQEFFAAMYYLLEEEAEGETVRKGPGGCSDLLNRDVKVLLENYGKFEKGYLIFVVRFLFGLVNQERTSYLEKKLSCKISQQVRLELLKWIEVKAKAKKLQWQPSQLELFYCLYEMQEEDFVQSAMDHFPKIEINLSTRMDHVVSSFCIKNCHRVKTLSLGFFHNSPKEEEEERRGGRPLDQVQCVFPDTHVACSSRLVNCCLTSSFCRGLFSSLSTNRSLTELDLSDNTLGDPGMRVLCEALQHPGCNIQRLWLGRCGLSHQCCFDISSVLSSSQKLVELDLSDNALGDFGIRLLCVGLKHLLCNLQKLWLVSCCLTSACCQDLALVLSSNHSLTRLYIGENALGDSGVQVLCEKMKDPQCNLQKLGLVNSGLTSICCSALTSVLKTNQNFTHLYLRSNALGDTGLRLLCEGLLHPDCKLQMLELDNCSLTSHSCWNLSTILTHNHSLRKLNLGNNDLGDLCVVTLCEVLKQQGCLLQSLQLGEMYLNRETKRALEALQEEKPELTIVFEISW", "assay": "co-IP; endogenous proteins in murine BMDMs, resting or treated with LPS (100 ng/ml) or Pam3CSK4 (200 ng/ml) for indicated times (Fig. 1D, E), or Usp13+/+ and Usp13-/- BMDMs treated with MG132 for 6 hours and then LPS (Fig. 4J); lysates immunoprecipitated with anti-NLRP3 antibody and protein A/G agarose; interaction weak in resting cells, increased by priming", "conditions": "remark: other sources report otherwise"}, "[3]": {"biological_target": "NLRP3, endogenous in THP-1 cells (human (endogenous in THP-1)) (UniProt Q96P20)", "assay": "co-IP; endogenous proteins in THP-1 cells treated with LPS for indicated times; lysates immunoprecipitated with a control IgG or anti-NLRP3 antibody (Fig. 1F, G)"}}, "note": "Results are given in words; binding and its absence hold for the method and conditions named. In cells and extracts the contact can be indirect. Some binding calls cover weakened binding; strength is not graded here. For some assays here: Sequences can lack the tags named with a protein.", "data": [{"molecule": "Myc-tagged human NLRP3 (from UniProt Q96P20 1-1036)", "values": [{"measurement": "binding", "setting": "GFP-human FBXL2 (human)", "value": "binds"}, {"measurement": "binding", "setting": "[1]", "value": "binds weakly"}, {"measurement": "binding", "setting": "HA-human TRIM31 (human)", "value": "binds"}]}, {"molecule": "TRIM31, endogenous in murine BMDMs, Q8R0K2 1-507 (enzyme) MAGQPLACQLQEEVTCPICMEILQDPVTIDCGHNFCLQCISQVGKTSEKIQCPLCKLSVNKNTFRPNKLLASLAEKIQSMDPADIQAEKEDSRCQRHKEKLHYFCEQDGAFLCVVCRDSKDHKSHNVTLIDEAAQNYKVQIESQAQDLGQKDKKIIEEKKQGEGAIWAFRAQVDLEKLKIHEEFKLLRQRLDEEESFLLSRLDWLEQQGAKQLRQYVTVTEKQLNSLRKLTKSLKIRLQSSSMELLKDIKDALSRGKEFQFLNPNPVPEDLEKKCSEAKARHESIIKTLTELKDDMNAEGKRDKSAFMNSLNKEEKESWSLLQKNNSVLPTSVPVTLDKSSADPDLTFSQDLKKVTLYIVAGKASNRQAKPRPFYPFHCVRGSPGLSSGRQVWEAEIRGPSGGACIVGVVTELARGAQSQTVSAQSYIWALRISPSGCQPFTNCKAQEYLQVCLKKVGVYVNHDCGEVVFYDAITSKHIYTFQTSFDGKVFPLFGLQVACSHITLSP", "values": [{"measurement": "binding", "setting": "[2]", "value": "binds"}]}, {"molecule": "USP13 (ubiquitin-specific protease 13), endogenous in THP-1 cells (enzyme, UniProt Q92995 1-863) MQRRGALFGMPGGSGGRKMAAGDIGELLVPHMPTIRVPRSGDRVYKNECAFSYDSPNSEGGLYVCMNTFLAFGREHVERHFRKTGQSVYMHLKRHVREKVRGASGGALPKRRNSKIFLDLDTDDDLNSDDYEYEDEAKLVIFPDHYEIALPNIEELPALVTIACDAVLSSKSPYRKQDPDTWENELPVSKYANNLTQLDNGVRIPPSGWKCARCDLRENLWLNLTDGSVLCGKWFFDSSGGNGHALEHYRDMGYPLAVKLGTITPDGADVYSFQEEEPVLDPHLAKHLAHFGIDMLHMHGTENGLQDNDIKLRVSEWEVIQESGTKLKPMYGPGYTGLKNLGNSCYLSSVMQAIFSIPEFQRAYVGNLPRIFDYSPLDPTQDFNTQMTKLGHGLLSGQYSKPPVKSELIEQVMKEEHKPQQNGISPRMFKAFVSKSHPEFSSNRQQDAQEFFLHLVNLVERNRIGSENPSDVFRFLVEERIQCCQTRKVRYTERVDYLMQLPVAMEAATNKDELIAYELTRREAEANRRPLPELVRAKIPFSACLQAFSEPENVDDFWSSALQAKSAGVKTSRFASFPEYLVVQIKKFTFGLDWVPKKFDVSIDMPDLLDINHLRARGLQPGEEELPDISPPIVIPDDSKDRLMNQLIDPSDIDESSVMQLAEMGFPLEACRKAVYFTGNMGAEVAFNWIIVHMEEPDFAEPLTMPGYGGAASAGASVFGASGLDNQPPEEIVAIITSMGFQRNQAIQALRATNNNLERALDWIFSHPEFEEDSDFVIEMENNANANIISEAKPEGPRVKDGSGTYELFAFISHMGTSTMSGHYICHIKKEGRWVIYNDHKVCASERPPKDLGYMYFYRRIPS", "values": [{"measurement": "binding", "setting": "[3]", "value": "binds"}]}]}
